According to the supplement of paper PMC11876631:
Numbering of substitutions follows the chain as printed. Names may count otherwise. ± gives the standard deviation of the averaged measurements. Laboratory Escherichia coli strains with one amino-acid change in an essential protein, pooled on minimal glucose agar with carbenicillin or gentamicin at twice the control MIC (plus kanamycin and chloramphenicol for the plasmids), 48 h. Fold change of barcode share against drug-free plates; higher = less susceptible. Active = above 20 in both replicates (the paper's putatively resistant). '<' = one read or none on drug, '>' = one read or none on a drug-free plate. Shares are relative, so most strains fall below 1 when a few take over. Listed are strains with at least 15 reads on both drug-free plates, and hits; most hits rest on fewer reference reads. Replicate rank correlation about 0.5. Edits are read from barcodes.

B1: pdxH V183Q (protein)
chain: MSDNDELQQIAHLRREYTKGGLRRRDLPADPLTLFERWLSQACEAKLADPTAMVVATVDEHGQPYQRIVLLKHYDEKGMVFYTNLGSRKAHQIENNPRVSLLFPWHTLERQVMVIGKAERLSTLEVMKYFHSRPRDSQIGAWVSKQSSRISARGILESKFLELKQKFQQGEVPLPSFWGGFRQSLEQIEFWQGGEHRLHDRFLYQRENDAWKIDRLAP
B2: plsB L347A (protein)
chain: MSGWPRIYYKLLNLPLSILVKSKSIPADPAPELGLDTSRPIMYVLPYNSKADLLTLRAQCLAHDLPDPLEPLEIDGTLLPRYVFIHGGPRVFTYYTPKEESIKLFHDYLDLHRSNPNLDVQMVPVSVMFGRAPGREKGEVNPPLRMLNGVQKFFAVLWLGRDSFVRFSPSVSLRRMADEHGTDKTIAQKLARVARMHFARQRLAAVGPRLPARQDLFNKLLASRAIAKAVEDEARSKKISHEKAQQNAIALMEEIAANFSYEMIRLTDRILGFTWNRLYQGINVHNAERVRQLAHDGHELVYVPCHRSHMDYLLLSYVLYHQGLVPPHIAAGINLNFWPAGPIFRRAGAFFIRRTFKGNKLYSTVFREYLGELFSRGYSVEYFVEGGRSRTGRLLDPKTGTLSMTIQAMLRGGTRPITLIPIYIGYEHVMEVGTYAKELRGATKEKESLPQMLRGLSKLRNLGQGYVNFGEPMPLMTYLNQHVPDWRESIDPIEAVRPAWLTPTVNNIAADLMVRINNAGAANAMNLCCTALLASRQRSLTREQLTEQLNCYLDLMRNVPYSTDSTVPSASASELIDHALQMNKFEVEKDTIGDIIILPREQAVLMTYYRNNIAHMLVLPSLMAAIVTQHRHISRDVLMEHVNVLYPMLKAELFLRWDRDELPDVIDALANEMQRQGLITLQDDELHINPAHSRTLQLLAAGARETLQRYAITFWLLSANPSINRGTLEKESRTVAQRLSVLHGINAPEFFDKAVFSSLVLTLRDEGYISDSGDAEPAETMKVYQLLAELITSDVRLTIESATQGEG
B3: plsB M430A (protein)
chain: B2 chain with A347L, M430A
B4: plsB L347D (protein)
chain: B2 chain with A347D

Target: Escherichia coli (laboratory strain)
Test: barcode share on antibiotic plates over drug-free plates; higher = less susceptible
Method: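 A pool of E. coli strains, each edited to carry one amino-acid change in an essential protein, was grown for 48 h on minimal glucose agar with or without antibiotic; strain barcodes were sequenced; mean of two replicates.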

[1] = antibiotic: carbenicillin, 2× MIC (3.1 µg/mL)
[2] = antibiotic: gentamicin, 2× MIC (MIC 0.45 µg/mL)

Protein	fold change of barcode share [1]	fold change of barcode share [2]
B1	0.233 ± 0.062	0.0211 ± 0.0022
B2	0.291 ± 0.08	0.0292 ± 0.029
B3	0.558 ± 0.38	0.0113 ± 0.013
B4	0.712 ± 0.59	< 0.0116
